Measurements from US20250257143A1 (FORTE SUBSIDIARY, published 2025).
Positions count from the first letter of the chain named. Numbers in names are those of the source.

B1: G10 (antibody, human IgG1, kappa)
heavy: QVQLVQSGAEVKKPGASVKVSCKASGYTFTSHWITWVRQAPGQRLEWMGDIYPGSGNTNYNEKFQGRVTITVDTSASTAYMELSSLRSEDTAVYYCARERGGFDYWGQGTLVTVSS[here human IgG1 constant region without letters]
light: DIQMTQSPSSLSASVGDRVTITCRASQDISNFLNWYQQKPGKAPKLLIYYTSGLHSGVPSRFSGSGSGTDFTLTISSLQPEDFATYYCQQDNNHPYTFGQGTKLEIKRTVAAPSVFIFPPSDEQLKSGTASVVCLLNNFYPREAKVQWKVDNALQSGNSQESVTEQDSKDSTYSLSSTLTLSKADYEKHKVYACEVTHQGLSSPVTKSFNRGEC
notes: Humanized, human IgG1 (G1M17), kappa
B2: G13 (antibody, human IgG4 S228P, kappa)
heavy: QVQLVQSGAEVKKPGASVKVSCKASGYTFTSHWISWVRQAPGQGLEWMGDIYPGSGNTNYNEKLQGRVTMTVDTSTSTAYMELRSLRSDDTAVYYCARERGGFDYWGQGTLVTVSSASTKGPSVFPLAPCSRSTSESTAALGCLVKDYFPEPVTVSWNSGALTSGVHTFPAVLQSSGLYSLSSVVTVPSSSLGTKTYTCNVDHKPSNTKVDKRV[here human IgG4 Fc with S228P (EU numbers) without letters]
light: B1 light with R24Q, A43T, P44L, S56T, L73F, F83I
notes: Humanized, human IgG4 (S228P), kappa

Key:
[1] = target: T1, huCD122-HIS (ARCO Bio | Cat No. CD2-H5221) (human, UniProt P14784 27-239); assay: BLI Octet, antibody captured on AHC sensor, huCD122-His analyte, 1:1 fit
T1 construct: Bought analyte of the BLI assay; also called human CD122; not shown: His tag
T1 sequence (looked up): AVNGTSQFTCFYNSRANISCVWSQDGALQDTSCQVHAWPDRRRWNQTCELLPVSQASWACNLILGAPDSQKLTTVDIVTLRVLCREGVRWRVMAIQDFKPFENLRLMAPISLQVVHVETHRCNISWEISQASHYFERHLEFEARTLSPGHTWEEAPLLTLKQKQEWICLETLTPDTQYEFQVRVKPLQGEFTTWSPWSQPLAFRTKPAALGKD
Method: (§1) Based on Bio-Layer Interferometry (BLI), the Octet® BLI system is a fluidics-free instrument platform that enables real-time, label-free analysis for the determination of kinetics, affinity and antibody/protein quantitation. Binding experiments were performed on Octet HTX at 25° C. The analyte used was huCD122-HIS (ARCO Bio | Cat No. CD2-H5221) at a molecular weight of 25.4 kDa. The antibodies were loaded onto Anti-human Fc capture (AHC) sensors. The loaded sensors were dipped into serial dilutions of huCD122-His (Starting at 20 nM, 1:3 dilution, 4 points). Reference sample well (buffer) was used for data analysis. Kinetic constants were calculated using a monovalent (1:1) binding model. The assay buffer used was PBS with 0.1% BSA, […], pH 7.2. The regeneration buffer used was 10 mM Glycine buffer (pH 1.7). The four concentrations of huCD122-His used to determine anti-CD122 antibody binding and dissociation properties were 0.0 nM, 2.2 nM, 6.7 nM, and 20 nM. Sensorgram plots to display antibody binding characteristics were generated. The mouse parental chimera configurations in both IgG1 and IgG4 backbones (M5 IgG1 parental and M5 IgG4 parental) were tested as well as each combination of the humanized 3 HC and 3 LC variants in either an IgG1 or an IgG4 backbone.

[2] = target: T1, huCD122-HIS (ARCO Bio | Cat No. …); assay: BLI Octet, antibody captured on AHC sensor, huCD122-His analyte, 1:1 fit; second batch
Method: as §1

[3] = target: T1, huCD122-HIS (ARCO Bio | Cat No. …); assay: BLI Octet, antibody captured on AHC sensor (loading 25 ug/mL), huCD122-His analyte, 1:1 fit; second batch
Method: as §1

| Binder | Kd [1] | Response [1] | koff [1] | kon [1] | Kd [2] | Response [2] | koff [2] | kon [2] | Kd [3] | koff [3] | kon [3] |
| --- | --- | --- | --- | --- | --- | --- | --- | --- | --- | --- | --- |
| B1 | 0.919 nM | 0.278 | 0.000518 s⁻¹ | 564000 M⁻¹ s⁻¹ | 1.41 nM | 0.36 | 0.000607 s⁻¹ | 431000 M⁻¹ s⁻¹ |  |  |  |
| B2 | 0.973 nM | 0.387 | 0.000396 s⁻¹ | 407000 M⁻¹ s⁻¹ |  |  |  |  | 0.995 nM | 0.000645 s⁻¹ | 648000 M⁻¹ s⁻¹ |
